# In the supplement of paper PMC8728848:
# Some of the results follow.
# B1: GSL-I-B4 (Griffonia simplicifolia) (protein)
# chain: NFWSDVEDSIIFQGDANTTAGTLQLCKTNQYGTPLQWSAGRALYSDPVQLWDNKTESVASFYTEFTFFLKITGNGPADGLAFFLAPPDSDVKDAGEYLGLFNKSTATQPSKNQVVAVEFDTWTNPNFPEPSYRHIGINVNSIVSVATKRWEDSDIFSGKIATARISYDGSAEILTVVLSYPDGSDYILSHSVDMRQNLPESVRVGISASTGNNQFLTVYILSWRFSSNLQSTSVKAAMEPEITRTVV
# Columns and labels:
# Experiment in all cases: glycan array binding signal (z-score within array); higher = stronger binding
# Settings in all cases: glycan notation: IUPAC condensed, linker removed
# [1] = molecular target: Gal(b1-4)GlcNAc(b1-3)Gal(b1-4)Glc
# Procedure, shortened: (§1)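 Glycan array data were curated from 3228 arrays in the Consortium for Functional Glycomics database and kept only where the protein sequence was available. Glycan names were converted to IUPAC-condensed notation, and columns mapping to the same glycan were averaged. The binding signal is a within-array Z-score, averaged across arrays of the same protein sequence at different concentrations or buffers and across linkers. Negative Z-scores can be read as non-binding.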
# [2] = molecular target: Gal(b1-4)GlcNAc(b1-3)Gal(b1-4)GlcNAc
# Procedure, shortened: as §1
# [3] = molecular target: Gal(b1-4)GlcNAc(b1-3)Gal(b1-4)GlcNAc(b1-2)Man(a1-3)[Gal(b1-4)GlcNAc(b1-3)Gal(b1-4)GlcNAc(b1-2)Man(a1-6)]Man(b1-4)GlcNAc(b1-4)GlcNAc
# Procedure, shortened: as §1
# [4] = molecular target: Gal(b1-4)GlcNAc(b1-3)Gal(b1-4)GlcNAc(b1-2)Man(a1-3)[Gal(b1-4)GlcNAc(b1-3)Gal(b1-4)GlcNAc(b1-2)Man(a1-6)]Man(b1-4)GlcNAc(b1-4)[Fuc(a1-6)]GlcNAc
# Procedure, shortened: as §1
# [5] = molecular target: Gal(b1-4)GlcNAc(b1-3)Gal(b1-4)GlcNAc(b1-2)[Gal(b1-4)GlcNAc(b1-3)Gal(b1-4)GlcNAc(b1-6)]Man(a1-6)[Gal(b1-4)GlcNAc(b1-3)Gal(b1-4)GlcNAc(b1-2)Man(a1-3)]Man(b1-4)GlcNAc(b1-4)GlcNAc
# Procedure, shortened: as §1
# [6] = molecular target: Gal(b1-4)GlcNAc(b1-3)Gal(b1-4)GlcNAc(b1-2)[Gal(b1-4)GlcNAc(b1-3)Gal(b1-4)GlcNAc(b1-6)]Man(a1-6)[Gal(b1-4)GlcNAc(b1-3)Gal(b1-4)GlcNAc(b1-2)Man(a1-3)]Man(b1-4)GlcNAc(b1-4)[Fuc(a1-6)]GlcNAc
# Procedure, shortened: as §1
# [7] = molecular target: Gal(b1-4)GlcNAc(b1-3)Gal(b1-4)GlcNAc(b1-3)Gal(b1-4)GlcNAc
# Procedure, shortened: as §1
# [8] = molecular target: Gal(b1-4)GlcNAc(b1-3)Gal(b1-4)GlcNAc(b1-3)Gal(b1-4)GlcNAc(b1-2)Man(a1-3)[Gal(b1-4)GlcNAc(b1-3)Gal(b1-4)GlcNAc(b1-3)Gal(b1-4)GlcNAc(b1-2)Man(a1-6)]Man(b1-4)GlcNAc(b1-4)GlcNAc
# Procedure, shortened: as §1
# [9] = molecular target: Gal(b1-4)GlcNAc(b1-3)Gal(b1-4)GlcNAc(b1-3)Gal(b1-4)GlcNAc(b1-2)Man(a1-3)[Gal(b1-4)GlcNAc(b1-3)Gal(b1-4)GlcNAc(b1-3)Gal(b1-4)GlcNAc(b1-2)Man(a1-6)]Man(b1-4)GlcNAc(b1-4)[Fuc(a1-6)]GlcNAc
# Procedure, shortened: as §1
# [10] = molecular target: Gal(b1-4)GlcNAc(b1-3)Gal(b1-4)GlcNAc(b1-3)Gal(b1-4)GlcNAc(b1-2)[Gal(b1-4)GlcNAc(b1-3)Gal(b1-4)GlcNAc(b1-3)Gal(b1-4)GlcNAc(b1-6)]Man(a1-6)[Gal(b1-4)GlcNAc(b1-3)Gal(b1-4)GlcNAc(b1-3)Gal(b1-4)GlcNAc(b1-2)Man(a1-3)]Man(b1-4)GlcNAc(b1-4)[Fuc(a1-6)]GlcNAc
# Procedure, shortened: as §1
# [11] = molecular target: Gal(b1-4)GlcNAc(b1-3)Gal(b1-4)GlcNAc(b1-3)Gal(b1-4)GlcNAc(b1-3)Gal(b1-4)GlcNAc(b1-2)Man(a1-3)[Gal(b1-4)GlcNAc(b1-3)Gal(b1-4)GlcNAc(b1-3)Gal(b1-4)GlcNAc(b1-3)Gal(b1-4)GlcNAc(b1-2)Man(a1-6)]Man(b1-4)GlcNAc(b1-4)GlcNAc
# Procedure, shortened: as §1
# [12] = molecular target: Gal(b1-4)GlcNAc(b1-3)Gal(b1-4)GlcNAc(b1-3)Gal(b1-4)GlcNAc(b1-3)Gal(b1-4)GlcNAc(b1-2)Man(a1-3)[Gal(b1-4)GlcNAc(b1-3)Gal(b1-4)GlcNAc(b1-3)Gal(b1-4)GlcNAc(b1-3)Gal(b1-4)GlcNAc(b1-2)Man(a1-6)]Man(b1-4)GlcNAc(b1-4)[Fuc(a1-6)]GlcNAc
# Procedure, shortened: as §1
# [13] = molecular target: Gal(b1-4)GlcNAc(b1-3)Gal(b1-4)GlcNAc(b1-3)Gal(b1-4)GlcNAc(b1-3)Gal(b1-4)GlcNAc(b1-2)[Gal(b1-4)GlcNAc(b1-3)Gal(b1-4)GlcNAc(b1-3)Gal(b1-4)GlcNAc(b1-3)Gal(b1-4)GlcNAc(b1-6)]Man(a1-6)[Gal(b1-4)GlcNAc(b1-3)Gal(b1-4)GlcNAc(b1-3)Gal(b1-4)GlcNAc(b1-3)Gal(b1-4)GlcNAc(b1-2)Man(a1-3)]Man(b1-4)GlcNAc(b1-4)[Fuc(a1-6)]GlcNAc
# Procedure, shortened: as §1
# [14] = molecular target: Gal(b1-4)GlcNAc(b1-3)Gal(b1-4)GlcNAc(b1-3)Gal(b1-4)GlcNAc(b1-3)Gal(b1-4)GlcNAc(b1-3)Gal(b1-4)GlcNAc(b1-2)Man(a1-3)[Gal(b1-4)GlcNAc(b1-3)Gal(b1-4)GlcNAc(b1-3)Gal(b1-4)GlcNAc(b1-3)Gal(b1-4)GlcNAc(b1-3)Gal(b1-4)GlcNAc(b1-2)Man(a1-6)]Man(b1-4)GlcNAc(b1-4)GlcNAc
# Procedure, shortened: as §1
# [15] = molecular target: Gal(b1-4)GlcNAc(b1-3)Gal(b1-4)GlcNAc(b1-3)Gal(b1-4)GlcNAc(b1-3)Gal(b1-4)GlcNAc(b1-3)Gal(b1-4)GlcNAc(b1-2)Man(a1-3)[Gal(b1-4)GlcNAc(b1-3)Gal(b1-4)GlcNAc(b1-3)Gal(b1-4)GlcNAc(b1-3)Gal(b1-4)GlcNAc(b1-3)Gal(b1-4)GlcNAc(b1-2)Man(a1-6)]Man(b1-4)GlcNAc(b1-4)[Fuc(a1-6)]GlcNAc
# Procedure, shortened: as §1
# [16] = molecular target: Gal(b1-4)GlcNAc(b1-3)Gal(b1-4)GlcNAc(b1-3)Gal(b1-4)GlcNAc(b1-3)Gal(b1-4)GlcNAc(b1-3)Gal(b1-4)GlcNAc(b1-2)[Gal(b1-4)GlcNAc(b1-3)Gal(b1-4)GlcNAc(b1-3)Gal(b1-4)GlcNAc(b1-3)Gal(b1-4)GlcNAc(b1-3)Gal(b1-4)GlcNAc(b1-6)]Man(a1-6)[Gal(b1-4)GlcNAc(b1-3)Gal(b1-4)GlcNAc(b1-3)Gal(b1-4)GlcNAc(b1-3)Gal(b1-4)GlcNAc(b1-3)Gal(b1-4)GlcNAc(b1-2)Man(a1-3)]Man(b1-4)GlcNAc(b1-4)[Fuc(a1-6)]GlcNAc
# Procedure, shortened: as §1
# [17] = molecular target: Gal(b1-4)GlcNAc(b1-3)Gal(b1-4)GlcNAc(b1-3)Gal(b1-4)GlcNAc(b1-3)Gal(b1-4)GlcNAc(b1-3)Gal(b1-4)GlcNAc(b1-3)Gal(b1-4)GlcNAc(b1-2)Man(a1-3)[Gal(b1-4)GlcNAc(b1-3)Gal(b1-4)GlcNAc(b1-3)Gal(b1-4)GlcNAc(b1-3)Gal(b1-4)GlcNAc(b1-3)Gal(b1-4)GlcNAc(b1-3)Gal(b1-4)GlcNAc(b1-2)Man(a1-6)]Man(b1-4)GlcNAc(b1-4)GlcNAc
# Procedure, shortened: as §1
# [18] = molecular target: Gal(b1-4)GlcNAc(b1-3)Gal(b1-4)GlcNAc(b1-3)GalNAc
# Procedure, shortened: as §1
# [19] = molecular target: Gal(b1-4)GlcNAc(b1-3)Gal(b1-4)GlcNAc(b1-3)[Gal(b1-4)GlcNAc(b1-3)Gal(b1-4)GlcNAc(b1-6)]GalNAc
# Procedure, shortened: as §1
binder,measurement,setting,value
B1,glycan array binding signal (z-score),[1],-0.19
same,glycan array binding signal (z-score),[2],-0.209
same,glycan array binding signal (z-score),[3],0.028
same,glycan array binding signal (z-score),[4],-0.049
same,glycan array binding signal (z-score),[5],-0.178
same,glycan array binding signal (z-score),[6],-0.159
same,glycan array binding signal (z-score),[7],-0.172
same,glycan array binding signal (z-score),[8],0.143
same,glycan array binding signal (z-score),[9],-0.204
same,glycan array binding signal (z-score),[10],-0.105
same,glycan array binding signal (z-score),[11],-0.16
same,glycan array binding signal (z-score),[12],-0.182
same,glycan array binding signal (z-score),[13],-0.191
same,glycan array binding signal (z-score),[14],-0.139
same,glycan array binding signal (z-score),[15],-0.136
same,glycan array binding signal (z-score),[16],-0.188
same,glycan array binding signal (z-score),[17],-0.133
same,glycan array binding signal (z-score),[18],0.126
same,glycan array binding signal (z-score),[19],0.017
